Measured values from PubChem BioAssay AID2147 (National Center for Advancing Translational Sciences (NCATS), 2009).
In all, about 230,000 compounds went through this assay and about 3,600 (1.6%) were called active. This list was built around the results that the source calls inconclusive (neither active nor inactive); the mix of calls is not that of the screen. Calls come from the whole dose curve; as a rule, active = well fitted inhibition curve with a large enough effect (not every such curve was filed as active); inconclusive = small, poorly fitted or top-dose-only effect, or another doubt; inactive = no such curve, though single readings can be large or run the other way. Potencies beside an inconclusive call are fits to weak or partial responses and may not hold up.

target: Lysine-specific demethylase 4E (Homo sapiens) (UniProt B2RXH2); assay: qHTS Assay for Inhibitors of Human Jumonji Domain Containing 2E (JMJD2E); conditions: JMJD2E catalytic domain, FDH-coupled NADH fluorescence (FDH is formaldehyde dehydrogenase); series mostly up to 57.1 µM; activity change, negative = inhibition: at the top concentration
Note: nearly all actives have a fitted effect of over 50% in size.
Potency is the fitted concentration of half-maximal effect; tags give direction and shape of the fitted curve.
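Throughout, for activity change, negative = inhibition: 0% = wells with enzyme and -100% = buffer wells without enzyme.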

Chain of UniProt B2RXH2 (B2RXH2 whole entry, looked up, the tested form may be a part): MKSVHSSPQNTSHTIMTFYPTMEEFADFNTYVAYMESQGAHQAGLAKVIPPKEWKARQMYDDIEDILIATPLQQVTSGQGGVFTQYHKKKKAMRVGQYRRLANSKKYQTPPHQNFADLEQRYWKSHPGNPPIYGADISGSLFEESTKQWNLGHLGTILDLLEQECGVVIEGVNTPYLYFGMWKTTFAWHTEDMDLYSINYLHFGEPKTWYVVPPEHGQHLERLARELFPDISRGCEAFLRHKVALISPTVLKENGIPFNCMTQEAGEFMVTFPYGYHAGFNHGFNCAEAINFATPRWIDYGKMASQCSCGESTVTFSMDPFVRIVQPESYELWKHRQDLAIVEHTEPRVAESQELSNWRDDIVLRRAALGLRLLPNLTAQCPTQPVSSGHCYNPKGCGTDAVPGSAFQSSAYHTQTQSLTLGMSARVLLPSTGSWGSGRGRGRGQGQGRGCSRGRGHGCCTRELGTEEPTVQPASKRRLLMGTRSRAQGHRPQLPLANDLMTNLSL

Structure (SMILES) | Potency | activity change, negative = inhibition
CCCCC(CC)Cn1c(N)c(C#N)c2nc3ccccc3nc21 (configuration not stated) | inconclusive: 31.6 µM [inhibitor, partial curve] | 
CC(C)=C(NC(=O)c1ccccc1)C(=O)N/N=C(\C)c1ccccc1O | inconclusive: 3.16 µM [inhibitor, full curve, poor fit] | 
CCN1C=C(C(=O)OC)C(c2cccc(C)c2)C(C(=O)OC)=C1 | inconclusive: 25.1 µM [inhibitor, partial curve] | 
Cc1ccc2c(c1)c1c3n2CCN=C3CCC1 | inconclusive: 39.8 µM [inhibitor, single point] | 
CCOC(=O)COc1ccc2c(c1)C(=O)CC(C)(C)O2 | inconclusive: 31.6 µM [inhibitor, partial curve] | 
O=C1CCC(C(=O)N2CCCC(C(=O)c3ccc4c5c(cccc35)CC4)C2)=NN1 (configuration not stated) |  | inactive: -1.6%
O=C(Nc1nc(-c2cccs2)c(-c2cccs2)s1)C1(c2ccccc2)CC1 | inconclusive: 28.2 µM [inhibitor, partial curve] | 
CCN(CC)CCCCn1c(-c2ccccc2)nc2c(NCc3ccccc3)nc(C)nc21 | inconclusive: 25.1 µM [inhibitor, partial curve] | 
O=S(=O)(c1ccc2ccccc2c1)N1CCC(c2nc(-c3ccncc3)no2)CC1 | inconclusive: 35.5 µM [inhibitor, single point] | 
CCc1oc2ccccc2c1C(=O)c1cc(Br)c(O)c(Br)c1 | inactive | 
O=C(N/N=C/c1ccc2c(c1)OCO2)c1cc(-c2ccccc2)nc2ccccc12 | inconclusive: 35.5 µM [inhibitor, single point] | 
O=C(Nc1cccnc1)c1ccc(S(=O)(=O)c2ccc(Cl)cc2)cc1 | inconclusive: 35.5 µM [inhibitor, single point] | 
COc1ccc(-c2[nH]c(-c3ccc(C)cc3)nc2SCC(=O)Nc2nccs2)cc1 |  | inactive: 1.77%
COc1cccc2[nH]c3c(N4CCC5(CC4)OCCO5)ncnc3c12 | inconclusive: 28.2 µM [inhibitor, partial curve] | 
CCOC(=O)c1sc2nc(-c3cccnc3)ccc2c1N | inconclusive: 6.31 µM [inhibitor, single point] | 
COCCn1c(C)nnc1SCC(=O)Nc1ccccc1[N+](=O)[O-] |  | inactive: -2.36%
CNS(=O)(=O)c1cccc(C(=O)Nc2cccnc2)c1 |  | inactive: 11.4%
COc1nc(-c2ccccc2)ccc1-c1noc(-c2ccccc2)n1 | inconclusive: 31.6 µM [inhibitor, partial curve] | 
COCCn1cc(C(=O)NCCCN2CCC(C)CC2)c2c3ccccc3n(C)c2c1=O | inconclusive: 28.2 µM [inhibitor, partial curve] | 
Cc1nc2c(=O)n(C)c(=O)n(C)c2nc1Cl | inconclusive: 31.6 µM [inhibitor, partial curve] | 
COc1ccc(N2CCN(C(c3ccccc3OC)c3nnnn3C3CCCC3)CC2)cc1 (configuration not stated) |  | inactive: -12.4%
CCCn1c(C)cc(C(=O)COc2ccc(C)nc2[N+](=O)[O-])c1C |  | inactive: -0.448%
COc1ccc2[nH]c(=O)c(CN(CCO)S(=O)(=O)c3ccc(C)cc3)cc2c1 | inconclusive: 28.2 µM [inhibitor, partial curve] | 
CN1C(=O)CC(Nc2cccc3cccc(N)c23)C1=O (configuration not stated) | inconclusive: 0.562 µM [inhibitor, full curve] | 

Structure (SMILES) | Potency | activity change, negative = inhibition
CCOc1ccc(C2c3c(oc4cc(C)c(C)cc4c3=O)C(=O)N2CCCN(C)C)cc1OC (configuration not stated) | inconclusive: 25.1 µM [inhibitor, single point] | 
O=C1c2ccccc2NC2(CCCC2)N1N=C1CCCC1 | inconclusive: 0.631 µM [inhibitor, single point] | 
CC(=O)NCC1CCCN(Cc2cn(-c3ccccc3)nc2-c2ccc3c(c2)OCO3)C1 (configuration not stated) | inconclusive: 28.2 µM [inhibitor, partial curve] | 
COc1ccc(C(C)=O)cc1CSc1nnc(Nc2ccccc2)s1 |  | inactive: 12.4%
COc1ccc(OC)c(C2CC(=O)N3CN(c4cccc(Cl)c4)CSC3=C2C#N)c1 (configuration not stated) | inconclusive: 35.5 µM [inhibitor, single point] | 
c1ccc2oc(C3=NCCN3)cc2c1 | inconclusive: 22.4 µM [inhibitor, partial curve] | 
COC(=O)c1c(C)oc2ccc(OC(=O)N3CCOCC3)cc12 |  | inactive: 8.47%
O=C(/C=C/c1c(Cl)nc2ccccn12)Nc1ccc(F)cc1 | inconclusive: 39.8 µM [inhibitor, single point] | 
CN1CCN(NC(=O)c2cccc(C(F)(F)F)c2)CC1 |  | inactive: -6.93%
COc1ccc(-c2ccc(SC)nn2)cc1 | inconclusive: 28.2 µM [inhibitor, single point] | 
Cc1ccc(-c2ccc(CCC(=O)O)n2NC(N)=S)cc1 | inconclusive: 35.5 µM [inhibitor, single point] | 
Cc1cc(/C=C(\C#N)C(=O)NCCc2c[nH]c3ccccc23)c(C)n1C | inconclusive: 39.8 µM [inhibitor, single point] | 
O=C(Cn1c(-c2cncs2)nc2ccccc21)NCCc1ccccc1 | inconclusive: 39.8 µM [inhibitor, single point] | 
CC(=O)Nc1c(O)[nH]c2ccccc12 |  | inactive: 2.57%
N#C/C(=C/c1ccc(Br)s1)C(=O)NCCc1c[nH]c2ccccc12 |  | inactive: -12.5%
O=C(O)c1cccc(-c2nc3ccccc3[nH]2)c1 | inconclusive: 25.1 µM [inhibitor, partial curve] | 
CCCCS(=O)c1c(O)c2ccccc2[nH]c1=O (configuration not stated) | inconclusive: 39.8 µM [inhibitor, single point] | 
CCCCCCCn1ccc(=N)cc1 |  | inactive: -11.3%
Cc1c(C)n(CC(O)CN2CCOCC2)c2ccccc12 (configuration not stated) | inconclusive: 35.5 µM [inhibitor, single point] | 
Cc1cc(N=Nc2ccc(Cl)cc2)cc(CN2CCCC2)c1O |  | inactive: 3.06%
CN(C)c1ccc(/C=C(\Cl)c2nc3ccccc3s2)cc1 |  | inactive: -2.67%
CCOc1ccc(-c2cc(CCCC(=O)NCCCOC)no2)cc1 |  | inactive: -3.92%
Cc1cc(Cl)cc(Br)c1OCCCCn1cncn1 | inconclusive: 39.8 µM [inhibitor, single point] | 
